# Key:
# Conditions in all cases: 168 h, read-out: control
# Pyricularia oryzae = experiment: microbe, parasite or virus in culture; type: cell-based
# Alternaria solani = Alternaria solani (early blight of tomato/potato) in vitro test, radial growth on Potato Dextrose Agar
# Rhizoctonia solani = tested on: Rhizoctonia solani
# Botrytis cinerea = Botrytis cinerea (Gray mold) in vitro test, radial growth on Potato Dextrose Agar
Structure (SMILES),inhibition of growth at 300 ppm (Pyricularia oryzae) [%],inhibition of growth at 300 ppm (Alternaria solani) [%],inhibition of growth at 300 ppm (Rhizoctonia solani) [%],inhibition of growth at 300 ppm (Botrytis cinerea) [%]
"CCN(C)C=Nc1cc(C)c(C(=O)COc2ccc(OC(F)(F)F)cc2)cc1C [Compound 14, N′-(2,5-dimethyl-4-(2-(4-(trifluoromethoxy)phenoxy)acetyl)phenyl)-N-ethyl-N-methylformimidamide]",> 70,> 70,> 70,
"CCN(C)C=Nc1cc(C)c(C(=O)CSc2ccc(Br)cc2)cc1C [Compound 22, N′-(4-(2-((4-bromophenyl)thio)acetyl)-2,5-dimethylphenyl)-N-ethyl-N-methylformimidamide]",> 70,> 70,> 70,> 70
"CCN(C)C=Nc1cc(C)c(C(=O)CSc2cccc(C)c2)cc1Cl [Compound 35, N′-(2-chloro-5-methyl-4-(2-(m-tolylthio)acetyl)phenyl)-N-ethyl-N-methylformimidamide]",,> 70,,
"CCN(C)C=Nc1cc(C)c(C(=O)CSc2cccc(OC)c2)cc1Cl [Compound 56, N′-(2-chloro-4-(2-((3-methoxyphenyl)thio)acetyl)-5-methylphenyl)-N-ethyl-N-methylformimidamide]",,> 70,,
"CCN(C)C=Nc1cc(C)c(C(=O)CSc2ccccc2F)cc1Cl [Compound 58, N′-(2-chloro-4-(2-((2-fluorophenyl)thio)acetyl)-5-methylphenyl)-N-ethyl-N-methylformimidamide]",> 70,,,
"CCN(C)C=Nc1cc(C)c(C(=O)CSc2cccc(C(F)(F)F)c2)cc1C [Compound 60, N′-(2,5-dimethyl-4-(2-((3-(trifluoromethyl)phenyl)thio)acetyl)phenyl)-N-ethyl-N-methylformimidamide]",> 70,> 70,> 70,
"CCN(C)C=Nc1cc(C)c(C(=O)CSc2cccc(Cl)c2)cc1C [Compound 63, N′-(4-(2-((3-chlorophenyl)thio)acetyl)-2,5-dimethylphenyl)-N-ethyl-N-methylformimidamide]",> 70,> 70,> 70,
"CCN(C)C=Nc1cc(C)c(C(=O)CSc2ccc(SC)cc2)cc1C [Compound 64, N′-(2,5-dimethyl-4-(2-((4-(methylthio)phenyl)thio)acetyl)phenyl)-N-ethyl-N-methylformimidamide]",> 70,> 70,> 70,
"CCN(C)C=Nc1cc(C)c(C(=O)COc2cccc(SC(F)(F)C(F)(F)F)c2)cc1C [Compound 67, N′-(2,5-dimethyl-4-(2-(3-((perfluoroethyl)thio)phenoxy)acetyl)phenyl)-N-ethyl-N-methylformimidamide]",> 70,> 70,,
"CCN(C)C=Nc1cc(C)c(C(=O)COc2cccc(N(C)C)c2)cc1C [Compound 69, N′-(4-(2-(3-(dimethylamino)phenoxy)acetyl)-2,5-dimethylphenyl)-N-ethyl-N-methylformimidamide]",> 70,> 70,> 70,
"CCN(C)C=Nc1cc(C)c(C(=O)COc2ccccc2C)cc1C [Compound 71, N′-(2,5-dimethyl-4-(2-(o-tolyloxy)acetyl)phenyl)-N-ethyl-N-methylformimidamide]",> 70,> 70,> 70,
"CCN(C)C=Nc1cc(C)c(C(=O)COc2cccc(C(F)(F)F)c2)cc1C [Compound 72, N′-(2,5-dimethyl-4-(2-(3-(trifluoromethyl)phenoxy)acetyl)phenyl)-N-ethyl-N-methylformimidamide]",> 70,> 70,,
"CCN(C)C=Nc1cc(C)c(C(=O)COc2ccc(Cl)c(Cl)c2)cc1C [Compound 73, N′-(4-(2-(3,4-dichlorophenoxy)acetyl)-2,5-dimethylphenyl)-N-ethyl-N-methylformimidamide]",> 70,> 70,,
"CCN(C)C=Nc1cc(C)c(C(=O)C(C)Oc2cccc(C)c2)cc1C (stereo not shown) [Compound 77, N′-(2,5-dimethyl-4-(2-(m-tolyloxy)propanoyl)phenyl)-N-ethyl-N-methylformimidamide]",> 70,> 70,,
"CCN(C)C=Nc1cc(C)c(C(=O)COc2cccc(SCCC(F)=C(F)F)c2)cc1C [Compound 78, N′-(2,5-dimethyl-4-(2-(3-((3,4,4-trifluorobut-3-en-1-yl)thio)phenoxy)acetyl)phenyl)-N-ethyl-N-methylformimidamide]",> 70,> 70,> 70,
"CCN(C)C=Nc1cc(C)c(C(=O)COc2ccc(C)cc2Br)cc1C [Compound 81, N′-(4-(2-(2-bromo-4-methylphenoxy)acetyl)-2,5-dimethylphenyl)-N-ethyl-N-methylformimidamide]",> 70,> 70,> 70,

Structure (SMILES),inhibition of growth at 300 ppm (Pyricularia oryzae) [%],inhibition of growth at 300 ppm (Alternaria solani) [%],inhibition of growth at 300 ppm (Rhizoctonia solani) [%],inhibition of growth at 300 ppm (Botrytis cinerea) [%]
"CCN(C)C=Nc1cc(C)c(C(=O)CSc2c(C)cccc2C)cc1C [Compound 82, N′-(4-(2-((2,6-dimethylphenyl)thio)acetyl)-2,5-dimethylphenyl)-N-ethyl-N-methylformimidamide]",> 70,> 70,> 70,
"CCN(C)C=Nc1cc(C)c(C(=O)CN(C)c2ccccc2)cc1C [Compound 85, N′-(2,5-dimethyl-4-(N-methyl-N-phenylglycyl)phenyl)-N-ethyl-N-methylformimidamide]",> 70,> 70,,
"CCN(C)C=Nc1cc(C)c(C(=O)COc2cc(Cl)cc(Cl)c2)cc1C [Compound 97, N′-(4-(2-(3,5-dichlorophenoxy)acetyl)-2,5-dimethylphenyl)-N-ethyl-N-methylformimidamide]",> 70,> 70,> 70,
"CCN(C)C=Nc1cc(C)c(C(=O)COc2ccc(Cl)c(C(F)(F)F)c2)cc1C [Compound 98, N′-(4-(2-(4-chloro-3-(trifluoromethyl)phenoxy)acetyl)-2,5-dimethylphenyl)-N-ethyl-N-methylformimidamide]",> 70,> 70,,
"CCN(C)C=Nc1cc(C)c(C(=O)CSc2cc(Cl)cc(Cl)c2)cc1C [Compound 101, N′-(4-(2-((3,5-dichlorophenyl)thio)acetyl)-2,5-dimethylphenyl)-N-ethyl-N-methylformimidamide]",> 70,> 70,,
"Cc1cc(N=CN(C)C)c(Cl)cc1C(=O)CSc1ccccc1Br [Compound 104, N′-(4-(2-((2-bromophenyl)thio)acetyl)-2-chloro-5-methylphenyl)-N,N-dimethylformimidamide]",,> 70,,
"CSc1cccc(OCC(=O)c2cc(C)c(N=CN(C)C)cc2C)c1 [Compound 105, N′-(2,5-dimethyl-4-(2-(3-(methylthio)phenoxy)acetyl)phenyl)-N,N-dimethylformimidamide]",> 70,> 70,> 70,
"Cc1cc(C(=O)CSc2cccc(F)c2)c(C)cc1N=CN(C)C [Compound 106, N′-(4-(2-((3-fluorophenyl)thio)acetyl)-2,5-dimethylphenyl)-N,N-dimethylformimidamide]",> 70,> 70,,
"Cc1cc(C(=O)CSc2c(C)cccc2C)c(C)cc1N=CN(C)C [Compound 107, N′-(4-(2-((2,6-dimethylphenyl)thio)acetyl)-2,5-dimethylphenyl)-N,N-dimethylformimidamide]",> 70,,,> 70
"CCN(C)C=Nc1cc(C)c(C(=O)COc2ccccc2OC)cc1C [Compound 110, N-ethyl-N′-(4-(2-(2-methoxyphenoxy)acetyl)-2,5-dimethylphenyl)-N-methylformimidamide]",> 70,,,
"CCSc1cccc(OCC(=O)c2cc(C)c(N=CN(C)CC)cc2C)c1 [Compound 111, N-ethyl-N′-(4-(2-(3-(ethylthio)phenoxy)acetyl)-2,5-dimethylphenyl)-N-methylformimidamide]",> 70,> 70,> 70,
"Cc1cc(C(=O)COc2cccc(OC(F)(F)F)c2)c(C)cc1N=CN(C)C [Compound 115, N′-(2,5-dimethyl-4-(2-(3-(trifluoromethoxy)phenoxy)acetyl)phenyl)-N,N-dimethylformimidamide]",> 70,> 70,,
"Cc1cc(C(=O)CSc2nc3ccccc3s2)c(C)cc1N=CN(C)C [Compound 116, N′-(4-(2-(benzo[d]thiazol-2-ylthio)acetyl)-2,5-dimethylphenyl)-N,N-dimethylformimidamide]",,> 70,,
"Cc1cc(C(=O)Cn2cnnc2)c(C)cc1N=CN(C)C [Compound 117, N′-(4-(2-(4H-1,2,4-triazol-4-yl)acetyl)-2,5-dimethylphenyl)-N,N-dimethylformimidamide]",> 70,> 70,,
"Cc1cc(C(=O)COc2ccc(C(F)(F)F)cc2)c(C)cc1N=CN(C)C [Compound 118, N′-(2,5-dimethyl-4-(2-(4-(trifluoromethyl)phenoxy)acetyl)phenyl)-N,N-dimethylformimidamide]",> 70,,,
"CCN(C)C=Nc1cc(C)c(C(=O)COc2cc(C)ccc2C)cc1Cl [Compound 119, N′-(2-chloro-4-(2-(2,5-dimethylphenoxy)acetyl)-5-methylphenyl)-N-ethyl-N-methylformimidamide]",,> 70,,

# Reference: patent US11524934B2, “Phenylamine compounds” (PI INDUSTRIES LTD., priority 2017, dated 2022)
